Laboratory results reported in the supplement of paper PMC9446081.
Screen size: about 39,000 compounds; about 220 (0.56%) showed activity. The list shows a part of the results.

system: Escherichia coli K-12 BW25113; experiment: relative growth (OD600 normalised to plate interquartile mean) (fraction); higher = less growth inhibition, active = 0.2 or less; details: 50 µM; LB; incubation time: overnight (16-24 h)
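Further: static incubation at 37 °C against the wild-type strain, values averaged over two biological replicates.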

Compound | relative growth
CC(C)C#Cc1ccc2c(c1)O[C@@H](CN(C)S(=O)(=O)c1cn(C)cn1)[C@H](C)CN([C@@H](C)CO)S2(=O)=O | inactive: 0.991
COCC#Cc1ccc2c(c1)O[C@@H](CN(C)Cc1ccccc1F)[C@H](C)CN([C@@H](C)CO)S2(=O)=O | inactive: 1.05
COc1ccc2c3c(n(c2c1)C)[C@H](CO)N(C[C@]13CN(Cc2cccnc2)C1)S(=O)(=O)c1ccc(cc1)C | inactive: 1.01
C[C@@H]1CCCCO[C@@H](CN(C)C(=O)c2ccccc2)[C@@H](C)CN([C@H](C)CO)C(=O)c2cc(NC(=O)Nc3ccc(F)cc3)ccc2O1 | inactive: 1.04
Oc1cccc2ccccc12 | inactive: 0.924
COc1ccc(C#Cc2ccc3c(c2)[C@H]2[C@H](CCN2C(=O)Nc2ccc(C(F)(F)F)cc2)[C@@H](CO)N3C)cc1 | inactive: 1.09
Cc1ccc(-c2nc(-c3ccc(Cl)cc3)cs2)cc1F | inactive: 0.955
CO[C@@H]1CN(C)C(=O)c2ccc(NC(=O)Nc3ccccc3)cc2OC[C@H](C)N(C(=O)CN(C)C)C[C@@H]1C | inactive: 0.995
O=C(C[C@@H]1C=C[C@H](NC(=O)CN2CCOCC2)[C@@H](CO)O1)NC1CCCCC1 | inactive: 0.932
C[C@H](CO)N1C[C@H](C)[C@@H](CN(C)S(=O)(=O)c2ccc(F)cc2)Oc2c(NC(=O)Nc3ccc(C(F)(F)F)cc3)cccc2C1=O | inactive: 0.767
C[C@@H]1CN([C@H](C)CO)C(=O)Cc2cc(NC(=O)C3CC3)ccc2O[C@H]1CN(C)S(=O)(=O)c1cn(C)cn1 | inactive: 0.948
C[C@H](CO)N1C[C@H](C)[C@H](CN(C)S(=O)(=O)c2cccs2)Oc2ccc(NC(=O)c3ccncc3)cc2C1=O | inactive: 0.99
C[C@@H]1CN([C@H](C)CO)C(=O)c2cccc(NC(=O)NC3CCCCC3)c2O[C@@H]1CN(C)Cc1ccc(C(F)(F)F)cc1 | inactive: 0.942
Cc1noc(C)c1NC(=O)N(C)C[C@@H]1OCCCC[C@@H](C)Oc2ccc(NC(=O)c3ccccc3)cc2C(=O)N([C@H](C)CO)C[C@H]1C | inactive: 0.958
CNC[C@H]1OCCCC[C@H](C)Oc2ccc(NC(=O)c3ccncc3)cc2C(=O)N([C@@H](C)CO)C[C@@H]1C | inactive: 0.973
C[C@@H]1CN([C@@H](C)CO)C(=O)c2cccc(NC(=O)Nc3ccc(C(F)(F)F)cc3)c2O[C@H]1CN(C)Cc1ccccc1 | inactive: 0.824
C[C@H](CO)N1C[C@H](C)[C@@H](CN(C)C(=O)Nc2ccc(C(F)(F)F)cc2)Oc2ccc(NC(=O)Cc3ccccc3)cc2C1=O | inactive: 0.977
C[C@H]1CN([C@@H](C)CO)C(=O)c2cccc(NC(=O)c3nc4ccccc4s3)c2O[C@@H]1CN(C)Cc1ccc(-c2ccccc2)cc1 | inactive: 1.04
CC(C)NC(=O)Nc1ccc2c(c1)C(=O)N([C@@H](C)CO)C[C@@H](C)[C@H](CN(C)Cc1ccc(Cl)c(Cl)c1)OCCCC[C@@H](C)O2 | inactive: 0.953
C[C@@H]1CN([C@@H](C)CO)C(=O)c2cc(NC(=O)Nc3cccc4ccccc34)ccc2O[C@H]1CN(C)Cc1ccc(-c2ccccc2)cc1 | inactive: 1
C[C@H](CO)N1C[C@H](C)[C@H](CN(C)C(=O)Nc2cccc(C(F)(F)F)c2)OCc2cnnn2CCCC1=O | inactive: 0.983

Compound | relative growth
CC1=C(C(=O)O)N2C(=O)[C@@H](NC(=O)[C@H](N)c3ccccc3)[C@H]2SC1 | inactive: 1.03
O=C(N/N=C/[C@H](O)[C@H](O)[C@@H](O)[C@@H](O)CO)c1ccccc1O | inactive: 0.987
COc1ccc(NC(=O)Nc2ccc3c(c2)C(=O)N([C@H](C)CO)C[C@H](C)[C@H](CN(C)S(=O)(=O)c2ccccc2)OCCCC[C@@H](C)O3)cc1 | inactive: 1.03
C[C@H](CO)N1C[C@H](C)[C@H](CN(C)Cc2ccc(Cl)c(Cl)c2)Oc2ccc(NC(=O)NC3CCCCC3)cc2C1=O | inactive: 0.998
O=C1CN(/N=C/c2ccc([N+](=O)[O-])o2)C(=O)N1 | active: 0.031
C[C@H](CO)N1C[C@H](C)[C@@H](CN(C)C(=O)Nc2ccc(C(F)(F)F)cc2)Oc2c(NC(=O)Nc3ccc4c(c3)OCO4)cccc2C1=O | inactive: 1.02
C[C@@H]1CN([C@H](C)CO)S(=O)(=O)c2ccc(C#Cc3ccc(F)cc3)cc2O[C@@H]1CN(C)C(=O)c1ccccn1 | inactive: 1.03
Cc1noc(C)c1S(=O)(=O)N(C)C[C@H]1Oc2ccc(NS(=O)(=O)c3cn(C)cn3)cc2C(=O)N([C@@H](C)CO)C[C@H]1C | inactive: 0.961
Cc1noc(C)c1NC(=O)Nc1ccc2c(c1)CC(=O)N([C@H](C)CO)C[C@H](C)[C@H](CN(C)S(C)(=O)=O)O2 | inactive: 0.97
COc1ccc(NC(=O)Nc2ccc3c(c2)C(=O)N([C@H](C)CO)C[C@H](C)[C@@H](CN(C)Cc2ccc4c(c2)OCO4)OCCCC[C@@H](C)O3)cc1 | inactive: 1.01
C[C@@H]1CN([C@@H](C)CO)C(=O)c2cc(NS(=O)(=O)c3ccc(Cl)cc3)ccc2O[C@H]1CN(C)S(C)(=O)=O | inactive: 0.987
COc1ccc(S(=O)(=O)N2C[C@H](O)COC[C@@H]3O[C@H](CC(=O)NCCCN4CCOCC4)CC[C@H]32)cc1 | inactive: 0.973
C[C@H](CO)N1C[C@H](C)[C@H](CN(C)Cc2ccc(C(=O)O)cc2)Oc2ccc(NS(=O)(=O)c3cn(C)cn3)cc2CC1=O | inactive: 1.01
CCOC(=O)C(CCc1ccccc1)NC(C)C(=O)N1Cc2ccccc2CC1C(=O)O (stereo unspecified) | inactive: 0.963
C[C@@H]1CN([C@@H](C)CO)C(=O)c2cccc(NC(=O)CCCCCC(=O)Nc3ccccc3N)c2O[C@H]1CN(C)S(=O)(=O)c1cn(C)cn1 | inactive: 1
N=C1SCCN1CC(=O)O | inactive: 0.992
C[C@@H]1CN([C@@H](C)CO)C(=O)Cc2cc(NC(=O)CCCCCC(=O)Nc3ccccc3N)ccc2O[C@@H]1CN(C)Cc1ccc(Cl)c(Cl)c1 | inactive: 0.952
N[C@@H](Cc1ccccn1)c1ccccc1 | inactive: 0.969
Cc1noc(C)c1NC(=O)N(C)C[C@H]1Oc2ccc(NS(=O)(=O)c3cn(C)cn3)cc2C(=O)N([C@@H](C)CO)C[C@@H]1C | inactive: 0.996
COc1ccc(NC(=O)N(C)C[C@H]2OCc3ccccc3-c3c(n(C)c4ccccc34)C(=O)N([C@H](C)CO)C[C@H]2C)cc1 | inactive: 0.985
O=C1CSC(=O)N1 | inactive: 0.998

Compound | relative growth
C[C@H](CO)N1C[C@H](C)[C@H](CN(C)C(=O)Nc2ccc(F)cc2)Oc2ccc(NC(=O)Nc3ccc(C(F)(F)F)cc3)cc2CC1=O | inactive: 0.969
O=C(C[C@@H]1CC[C@@H]2[C@H](COC[C@H](O)CN2C(=O)Nc2ccc(F)cc2)O1)NCCCN1CCOCC1 | inactive: 1.01
COc1ccc(S(=O)(=O)N(C)C[C@H]2OCCCC[C@H](C)Oc3ccc(NS(=O)(=O)c4cn(C)cn4)cc3C(=O)N([C@@H](C)CO)C[C@@H]2C)cc1 | inactive: 1
C[C@H]1CN([C@@H](C)CO)C(=O)c2cc(NS(=O)(=O)c3ccccc3)ccc2O[C@@H]1CN(C)C(=O)Nc1cccc2ccccc12 | inactive: 0.997
Cn1cnc(S(=O)(=O)N[C@H]2C=C[C@@H](CC(=O)N3CCN(c4ccccc4)CC3)O[C@H]2CO)c1 | inactive: 1.02
COCCOC(=O)N1C(=O)[C@@]2(c3cc(C#CC4=CCCCC4)ccc31)[C@H](c1ccc(OCCO)cc1)N1[C@H](c3ccccc3)[C@H](c3ccccc3)OC(=O)[C@H]1[C@@H]2C(=O)N1CCc2cc(OC)c(OC)cc2C1 | inactive: 1.04
C[C@H](CO)N1C[C@H](C)[C@H](CN(C)C(=O)c2cnccn2)Oc2cc(C3=CCCC3)ccc2S1(=O)=O | inactive: 0.983
NCCCCCCNC(=O)[C@H]1C[C@H]2C(=O)N[C@@H](CCCCN)C(=O)N2[C@H]1c1ccc(O)cc1 | inactive: 1.01
CN(C)CCCN1C(=O)[C@@]2(Cc3ccccc31)c1ccccc1C(=O)N(C1CCCCC1)[C@H]2c1ccc(CO)cc1 | inactive: 0.998
Cc1cn[nH]c1 | inactive: 1.03
CCN1[C@@H]2c3ccc(-c4ccc(C(=O)N(C)C)cc4)c(=O)n3C[C@@H]2[C@@H](CO)[C@@H]1C(=O)NCCOC | inactive: 0.971
COc1ccccc1CNC(=O)C[C@@H]1C[C@H]2c3cc(NC(=O)C4CCOCC4)ccc3O[C@H]2[C@H](CO)O1 | inactive: 0.975
Cc1ccc(S(=O)(=O)N2C[C@@H](O)COC[C@H]3O[C@@H](CC(=O)N[C@@H]4CCN(Cc5ccccc5)C4)CC[C@@H]32)cc1 | inactive: 1.01
C[C@@H]1CCCCO[C@@H](CN(C)C(=O)Cc2ccccc2)[C@H](C)CN([C@@H](C)CO)C(=O)c2cc(NC(=O)Nc3ccccc3)ccc2O1 | inactive: 1.02
C[C@@H](O)CN(CCN(C[C@@H](C)O)C[C@@H](C)O)C[C@@H](C)O | inactive: 1
CC(C)(C(=O)O)c1ccc(C(O)CCCN2CCC(C(O)(c3ccccc3)c3ccccc3)CC2)cc1.Cl (stereo unspecified) | inactive: 1.2
Cc1noc(C)c1NC(=O)Nc1ccc2c(c1)CC(=O)N([C@@H](C)CO)C[C@H](C)[C@H](CN(C)C(=O)Nc1cccc3ccccc13)O2 | inactive: 1.01
C[C@H]1CCCCO[C@@H](CN(C)Cc2ccc(C(F)(F)F)cc2)[C@@H](C)CN([C@@H](C)CO)C(=O)c2cc(NS(C)(=O)=O)ccc2O1 | inactive: 1
CNS(=O)(=O)c1ccc(Cl)c(C(N)=O)c1 | inactive: 1.01
